The list shows a part of the results. Single values are uncertain, as repeats are few or missing.
What follows are molecules tested on WM1716 (assay: cell count relative to DMSO control; melanoma cells; higher = more viable cells). Conditions: library dose: standard library concentration; 72 h.
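Also: cells treated in 1,536-well plates, then fixed and DAPI-stained, with nuclei counted from automated high-throughput microscope images.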

SMILES | cell count [%]
CCCCCCCCc1ccc(CCC(N)(CO)CO)cc1 [fingolimod] + CCN(CC)CCCCNc1ncc2cc(-c3cc(OC)cc(OC)c3)c(NC(=O)NC(C)(C)C)nc2n1 [PD173074] (first compound 10 µM, partner dose 0.5 µM) | 45.8
NC(=O)c1ccc(N(C(N)=O)c2c(F)cccc2F)nc1-c1ccc(F)cc1F + CCCCCCCCCCCC1=C(O)C(=O)C=C(O)C1=O [Embelin] (first compound 2 µM, partner dose 6 µM) | 67.5
CCCCCCCCc1ccc(CCC(N)(CO)CO)cc1 [fingolimod] + O=C(Nc1ccccc1)c1cc([N+](=O)[O-])ccc1Cl [GW9662] (first compound 10 µM, partner dose 10 µM) | 21.3
NC(=O)c1ccc(N(C(N)=O)c2c(F)cccc2F)nc1-c1ccc(F)cc1F + Cn1cc(/C=C2\C(=O)Nc3cccnc32)c2ccccc21 [GW441756] (first compound 2 µM, partner dose 2 µM) | 119

These molecules were tested on WM1745 in the same assay as above. Conditions: library dose: standard library concentration; 72 h.

SMILES | cell count [%]
CC(C)(C)c1cnc(CSc2cnc(NC(=O)C3CCNCC3)s2)o1 + CC(C)CCN1c2nc(Nc3cc(F)c(O)c(F)c3)ncc2N(C)C(=O)C1C [BID1870] (first compound 0.05 µM, partner dose 1 µM) | 96.8
COc1cc2c(Oc3ccc4[nH]c(C)cc4c3F)ncnc2cc1OCCCN1CCCC1 [cediranib] + COc1ccc(-c2ccc3c(N4CCOCC4)nc(N4C[C@@H](C)O[C@@H](C)C4)nc3n2)cc1CO [KU0063794] (first compound 2 µM, partner dose 0.1 µM) | 91.5
CCc1ccc(CCOc2ccc(CC3SC(=O)NC3=O)cc2)nc1 (stereo not given) [pioglitazone] + Cn1cc(/C=C2\C(=O)Nc3cccnc32)c2ccccc21 [GW441756] (first compound 10 µM, partner dose 2 µM) | 87.3
CN(NC(=O)CC(=O)NN(C)C(=S)c1ccccc1)C(=S)c1ccccc1 + CCc1ccc(CCOc2ccc(CC3SC(=O)NC3=O)cc2)nc1 [pioglitazone] (first compound 0.03 µM, partner dose 10 µM) | 31
Cc1ccc(NC(=O)c2cccc(N(C)C)c2)cc1NC(=O)c1ccc(O)cc1 + COc1ccc(-c2ccc3c(N4CCOCC4)nc(N4C[C@@H](C)O[C@@H](C)C4)nc3n2)cc1CO [KU0063794] (first compound 10 µM, partner dose 0.1 µM) | 58.9
COc1cc2c(Oc3ccc4[nH]c(C)cc4c3F)ncnc2cc1OCCCN1CCCC1 [cediranib] + COC(=O)c1sccc1S(=O)(=O)Nc1ccc(Nc2ccccc2)cc1OC [GSK0660] (first compound 2 µM, partner dose 5 µM) | 83.4
Cc1ccc(NC(=O)c2cccc(N(C)C)c2)cc1NC(=O)c1ccc(O)cc1 + N#Cc1c(O)c2c(-c3ccc(-c4ccccc4O)cc3)csc2[nH]c1=O [A769662] (first compound 10 µM, partner dose 10 µM) | 72.3
CCc1ccc(CCOc2ccc(CC3SC(=O)NC3=O)cc2)nc1 (stereo not given) [pioglitazone] + COc1ccc2c(c1)CCC1C2CCC2(C)C(NCCCCCCN3C(=O)C=CC3=O)CCC12 [U73122] (first compound 10 µM, partner dose 2 µM) | 68.2
CCCCCCCCc1ccc(CCC(N)(CO)CO)cc1 [fingolimod] + Cc1cc(Nc2cc(N3CCN(C)CC3)nc(/C=C/c3ccccc3)n2)n[nH]1 [ENMD2076] (first compound 10 µM, partner dose 0.2 µM) | 24
CC(C)(C)c1cnc(CSc2cnc(NC(=O)C3CCNCC3)s2)o1 + NCC(=O)Nc1ccc(-n2nc(C(F)(F)F)cc2-c2ccc3c(ccc4ccccc43)c2)cc1 [OSU03012] (first compound 0.05 µM, partner dose 5 µM) | 70.6
CCCCCCCCc1ccc(CCC(N)(CO)CO)cc1 [fingolimod] + O=C(O)c1ccc(-c2c[nH]c3ncc(-c4ccccc4)cc23)cc1C1CCCC1 [GSK650394] (first compound 10 µM, partner dose 0.8 µM) | 3.7

Source: the supplement of paper PMC4604168 (melanoma cell lines)
